# Results: the supplement of paper PMC8728848
# The list shows a part of the results.
# B1: PpFlo1 (Pichia pastoris) (protein)
# chain: MGSSHHHHHHSSGLVPRGSHMQESGDGDISDSAYACDIDATRYDGFNATIYEFQPGDGRLTRDPVFMSTGYLNRTQLHSITGVTDPGFSIYTPGVPTTTLYGIPNVNWENLLLELKGYFRAEVSGDYGLSLRNIDDSAILFFGKETAFQCCNENSISNEASTDYSLFTIFRQEGDETTNLDSFTYTQYLEAGKYYPVRTFFVNIERHAVFNFTMTLPDGTELTDFHNYIYQFGALDEEQCQA
# Tests used:
# Experiment in all cases: glycan array binding signal (z-score within array); higher = stronger binding
# Conditions in all cases: glycan notation: IUPAC condensed, linker removed
# [1] = target: Fuc(a1-2)Gal(b1-4)GlcNAc(b1-2)[Fuc(a1-2)Gal(b1-4)GlcNAc(b1-4)]Man(a1-3)[Fuc(a1-2)Gal(b1-4)GlcNAc(b1-2)Man(a1-6)]Man(b1-4)GlcNAc(b1-4)GlcNAc
# Procedure, shortened: (§1)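 From the Consortium for Functional Glycomics database, 3228 arrays were curated, keeping only those whose protein sequence was available. Binding is given as a within-array Z-score averaged across arrays sharing a protein sequence and across linkers. Negative Z-scores can be read as non-binding.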
# [2] = target: Fuc(a1-2)Gal(b1-4)GlcNAc(b1-3)Gal(b1-4)GlcNAc
# Procedure, shortened: as §1
# [3] = target: Fuc(a1-2)Gal(b1-4)GlcNAc(b1-3)Gal(b1-4)GlcNAc(b1-2)Man(a1-3)[Fuc(a1-2)Gal(b1-4)GlcNAc(b1-3)Gal(b1-4)GlcNAc(b1-2)Man(a1-6)]Man(b1-4)GlcNAc(b1-4)GlcNAc
# Procedure, shortened: as §1
# [4] = target: Fuc(a1-2)Gal(b1-4)GlcNAc(b1-3)Gal(b1-4)GlcNAc(b1-3)Gal(b1-4)GlcNAc
# Procedure, shortened: as §1
# [5] = target: Fuc(a1-2)Gal(b1-4)GlcNAc(b1-3)GalNAc
# Procedure, shortened: as §1
# [6] = target: Fuc(a1-2)Gal(b1-4)GlcNAc(b1-3)[Fuc(a1-2)Gal(b1-4)GlcNAc(b1-6)]GalNAc
# Procedure, shortened: as §1
# [7] = target: Fuc(a1-2)Gal(b1-4)GlcNAc(b1-3)[Fuc(a1-3)[Gal(b1-4)]GlcNAc(b1-6)]Gal(b1-4)Glc
# Procedure, shortened: as §1
# [8] = target: Fuc(a1-2)Gal(b1-4)GlcNAc(b1-6)GalNAc
# Procedure, shortened: as §1
# [9] = target: Fuc(a1-2)Gal(b1-4)GlcNAc6S
# Procedure, shortened: as §1
# [10] = target: Fuc(a1-2)Gal(b1-4)[Fuc(a1-3)]GlcNAc
# Procedure, shortened: as §1
# [11] = target: Fuc(a1-2)Gal(b1-4)[Fuc(a1-3)]GlcNAc(b1-2)Man(a1-3)[Fuc(a1-2)Gal(b1-4)[Fuc(a1-3)]GlcNAc(b1-2)Man(a1-6)]Man(b1-4)GlcNAc(b1-4)GlcNAc
# Procedure, shortened: as §1
# [12] = target: Fuc(a1-2)Gal(b1-4)[Fuc(a1-3)]GlcNAc(b1-2)Man(a1-3)[Fuc(a1-2)Gal(b1-4)[Fuc(a1-3)]GlcNAc(b1-2)Man(a1-6)]Man(b1-4)GlcNAc(b1-4)[Fuc(a1-6)]GlcNAc
# Procedure, shortened: as §1
# [13] = target: Fuc(a1-2)Gal(b1-4)[Fuc(a1-3)]GlcNAc(b1-2)[Fuc(a1-2)Gal(b1-4)[Fuc(a1-3)]GlcNAc(b1-4)]Man(a1-3)[Fuc(a1-2)Gal(b1-4)[Fuc(a1-3)]GlcNAc(b1-2)Man(a1-6)]Man(b1-4)GlcNAc(b1-4)GlcNAc
# Procedure, shortened: as §1
# [14] = target: Fuc(a1-2)Gal(b1-4)[Fuc(a1-3)]GlcNAc(b1-3)Gal(b1-4)[Fuc(a1-3)]GlcNAc
# Procedure, shortened: as §1
# [15] = target: Fuc(a1-2)Gal(b1-4)[Fuc(a1-3)]GlcNAc(b1-3)Gal(b1-4)[Fuc(a1-3)]GlcNAc(b1-3)Gal(b1-4)[Fuc(a1-3)]GlcNAc
# Procedure, shortened: as §1
# [16] = target: Fuc(a1-2)Gal(b1-4)[Fuc(a1-3)]GlcNAc(b1-3)GalNAc
# Procedure, shortened: as §1
# [17] = target: Fuc(a1-2)Gal(b1-4)[Fuc(a1-3)]GlcNAc(b1-3)[Neu5Ac(a2-6)Gal(b1-4)GlcNAc(b1-6)]Gal(b1-4)Glc
# Procedure, shortened: as §1
# [18] = target: Fuc(a1-2)Gal3S(b1-4)GlcNAc
# Procedure, shortened: as §1
# [19] = target: Fuc(a1-2)Gal6S(b1-3)GlcNAc
# Procedure, shortened: as §1
# [20] = target: Fuc(a1-2)Gal6S(b1-3)GlcNAc6S
# Procedure, shortened: as §1
# Fuc(a1-2)Gal6S(b1-4)Glc = target: Fuc(a1-2)Gal6S(b1-4)Glc
# Procedure, shortened: as §1
# [21] = target: Fuc(a1-2)Gal6S(b1-4)Glc6S
# Procedure, shortened: as §1
# [22] = target: Fuc(a1-2)Gal6S(b1-4)GlcNAc
# Procedure, shortened: as §1
# Fuc(a1-2)[Gal(a1-3)]Gal = target: Fuc(a1-2)[Gal(a1-3)]Gal
# Procedure, shortened: as §1
# [23] = target: Fuc(a1-2)[Gal(a1-3)]Gal(b1-3)GalNAc
# Procedure, shortened: as §1
# [24] = target: Fuc(a1-2)[Gal(a1-3)]Gal(b1-3)GalNAc(b1-3)Gal(a1-4)Gal(b1-4)Glc
# Procedure, shortened: as §1
# [25] = target: Fuc(a1-2)[Gal(a1-3)]Gal(b1-3)GlcNAc
# Procedure, shortened: as §1
# [26] = target: Fuc(a1-2)[Gal(a1-3)]Gal(b1-3)GlcNAc(b1-2)Man(a1-3)[Fuc(a1-2)[Gal(a1-3)]Gal(b1-3)GlcNAc(b1-2)Man(a1-6)]Man(b1-4)GlcNAc(b1-4)GlcNAc
# Procedure, shortened: as §1
# [27] = target: Fuc(a1-2)[Gal(a1-3)]Gal(b1-3)GlcNAc(b1-2)Man(a1-3)[Fuc(a1-2)[Gal(a1-3)]Gal(b1-3)GlcNAc(b1-2)Man(a1-6)]Man(b1-4)GlcNAc(b1-4)[Fuc(a1-6)]GlcNAc
# Procedure, shortened: as §1
# [28] = target: Fuc(a1-2)[Gal(a1-3)]Gal(b1-3)GlcNAc(b1-3)GalNAc
# Procedure, shortened: as §1
binder,measurement,setting,value
B1,glycan array binding signal (z-score),[1],-0.004
same,glycan array binding signal (z-score),[2],-0.549
same,glycan array binding signal (z-score),[3],0.179
same,glycan array binding signal (z-score),[4],-0.392
same,glycan array binding signal (z-score),[5],9.01
same,glycan array binding signal (z-score),[6],0.265
same,glycan array binding signal (z-score),[7],-0.112
same,glycan array binding signal (z-score),[8],-0.281
same,glycan array binding signal (z-score),[9],-0.106
same,glycan array binding signal (z-score),[10],0.142
same,glycan array binding signal (z-score),[11],0.317
same,glycan array binding signal (z-score),[12],0.805
same,glycan array binding signal (z-score),[13],0.16
same,glycan array binding signal (z-score),[14],-0.253
same,glycan array binding signal (z-score),[15],0.218
same,glycan array binding signal (z-score),[16],0.492
same,glycan array binding signal (z-score),[17],-0.279
same,glycan array binding signal (z-score),[18],-0.794
same,glycan array binding signal (z-score),[19],-0.003
same,glycan array binding signal (z-score),[20],0.088
same,glycan array binding signal (z-score),Fuc(a1-2)Gal6S(b1-4)Glc,-0.377
same,glycan array binding signal (z-score),[21],-0.232
same,glycan array binding signal (z-score),[22],-0.6
same,glycan array binding signal (z-score),Fuc(a1-2)[Gal(a1-3)]Gal,-0.335
same,glycan array binding signal (z-score),[23],0.182
same,glycan array binding signal (z-score),[24],-0.456
same,glycan array binding signal (z-score),[25],0.334
same,glycan array binding signal (z-score),[26],-0.28
same,glycan array binding signal (z-score),[27],-0.286
same,glycan array binding signal (z-score),[28],-0.494
